Several values for one entry are separate records, joined by “and”; a condition that tells them apart may be missing. Identical values can stand only once. Further values from the same series stand in other lists.

This test concerns SHIV. Briefly: PrEP efficacy in rhesus repeat intrarectal SHIV challenge model, plasma viral load by qRT-PCR. Format: in vivo, rhesus macaques. The procedure: The PrEP efficacy a compound of Formula (Ib) in rhesus was evaluated using a repeat intrarectal (IR) challenge model.
This study also established a correlation between exposure and protection using a single high-dose administration of a compound of Formula (Ib) vs. placebo, followed by multiple weekly IR challenges until infection occured. In this study, multiple challenges overlapped with clinically-relevant drug levels. The supratherapeutic IQs (inhibitory quotients) were assessed to maximize protection and achieve proof-of-concept in case rectal tissue levels were much lower than in plasma. Lower doses of a compound of Formula (Ib), or a pharmaceutically acceptable salt thereof, were assessed to capture more challenges at clinically relevant exposures, reducing the number of IR challenges, and facilitating a drug washout phase. The washout phase lasted for at least 20 weeks. In some embodiments, the washout phase lasted for 20-25 weeks. The washout phase of these studies was important to enable the administered drug concentrations to decline sufficiently below those that were expected to be clinically suppressive in order to confirm that animals that remained aviremic in the study did so because they were protected from infection as opposed to being infected following one or more of the viral challenges but remaining suppressed by prolonged therapeutic concentrations of the long-acting drug in plasma and/or tissue compartments.
FIG. 3 is a schematic of the study using a compound of Formula (Ib) in adult rhesus macaques (1:1 male/female ratio). Eight animals per group were treated with a single dose of placebo control, 150 mg/kg of a compound of Formula (Ib) (“Compound 1b”) or 300 mg/kg of a compound of Formula (Ib) (“Compound 1b”) on week 0 and allowed to wash out over time. All animals were challenged intrarectally with SHIV weekly beginning on week 1 until detectable viremia or up to a maximum of 15 challenges. SHIV challenge titer was increased over time from 10 TCID50 to 100 TCID50 through week 15 as depicted. Animal SHIV infection rate was assessed by weekly plasma viral load monitoring by qRT-PCR through study week 20. The protective efficacy of a compound of Formula (Ib) (“Compound 1b”) was established by comparing to infection rate observed in the placebo control group using the Cox proportional hazards model analysis.
Viral infection was scored one week after each SHIV challenge using a quantitative RT-PCR assay. Infected animals were defined as having a viral load >200 copies per mL plasma and the corresponding plasma viral load values are bolded.
Viral load measurements details: RNA was extracted from plasma using a QIAcube HT and the QIAcube 96 Cador pathogen HT kit (Qiagen). Gag RNA standards were generated using the AmpliCapMax™ T7 High Yield Message Maker Kit (Cell Script) and purified with RNA clean and concentrator kit (Zymo Research). Log dilutions of RNA were included with each assay run. Reverse transcription of both standards and samples was performed using Superscript III VILO (Invitrogen). Quantitative PCR was performed using the Quantstudio 6 Flex system with TaqMan™ Fast Advanced Master Mix (Applied Biosystems). Primer sequences were F-[…] (SEQ ID NO. 1) and R-[…] (SEQ ID NO. 2). The probe sequence was […] (SEQ ID NO. 3), and probe was labeled with FAM and BHQ (Biosearch Technologies). Viral loads were calculated as gag copies per mL.
A general note: In qPCR the cycle at which signal appears reflects the starting amount.

As for `CC(C)(C#Cc1ccc(-c2ccc(Cl)c3c(NS(=O)(=O)C4CC4)nn(CC(F)F)c23)c([C@H](Cc2cc(F)cc(F)c2)NC(=O)Cn2nc(C(F)F)c3c2C(F)(F)[C@@H]2C[C@H]32)n1)S(C)(=O)=O` [Compound Ib, N—((S)-1-(3-(4-chloro-3-(cyclopropanesulfonamido)-1-(2,2-difluoroethyl)-1H-indazol-7-yl)-6-(3-methyl-3-(methylsulfonyl)but-1-yn-1-yl)pyridin-2-yl)-2-(3,5-difluorophenyl)ethyl)-2-((3b S,4aR)-3-(difluoromethyl)-5,5-difluoro-3b,4,4a,5-tetrahydro-1H-cyclopropa[3,4]cyclopenta[1,2-c]pyrazol-1-yl)acetamide], the “Plasma SHIV” value is <200 copies/mL (7×) and 2317 copies/mL (150 mg/kg SC day 0, individual animals, study week 11, intrarectal SHIV dose 100 x TCID50, listed as Compound lb); <200 copies/mL (7×) and 1251253 copies/mL (150 mg/kg SC day 0, individual animals, study week 12, intrarectal SHIV dose 100 x TCID50, listed as Compound lb); <200 copies/mL (5×) and 4495324 copies/mL and 15543 copies/mL and 200 copies/mL (150 mg/kg SC day 0, individual animals, study week 13, intrarectal SHIV dose 100 x TCID50, listed as Compound lb); <200 copies/mL (5×) and 192698 copies/mL and 302527 copies/mL and 14481 copies/mL (150 mg/kg SC day 0, individual animals, study week 14, intrarectal SHIV dose 100 x TCID50, listed as Compound lb); <200 copies/mL (5×) and 1636073 copies/mL and 41252 copies/mL and 436449 copies/mL (150 mg/kg SC day 0, individual animals, study week 15, intrarectal SHIV dose 100 x TCID50, listed as Compound lb); 43433 copies/mL and <200 copies/mL (3×) and 144532 copies/mL and 37186 copies/mL and 15508 copies/mL and 62513 copies/mL (150 mg/kg SC day 0, individual animals, study week 16, SHIV dose N/A, listed as Compound lb). Further, the “Plasma SHIV” value (150 mg/kg SC day 0, individual animals, study week 17, SHIV dose N/A, listed as Compound lb) was 28104 copies/mL and <200 copies/mL (2×) and 128422 copies/mL and 4020 copies/mL and 5872 copies/mL and 1974 copies/mL and 76901 copies/mL; the “Plasma SHIV” value (150 mg/kg SC day 0, individual animals, study week 18, SHIV dose N/A, listed as Compound lb) was 8535 copies/mL and <200 copies/mL (2×) and 144695 copies/mL and 18625 copies/mL and 13017 copies/mL and 2250 copies/mL and 14905 copies/mL; the “Plasma SHIV” value (150 mg/kg SC day 0, individual animals, study week 19, SHIV dose N/A, listed as Compound lb) was 2197 copies/mL and <200 copies/mL (2×) and 23783 copies/mL and 733 copies/mL and 4607 copies/mL and 1586 copies/mL and 872 copies/mL; the “Plasma SHIV” value (300 mg/kg SC day 0, individual animals, study week 11, intrarectal SHIV dose 100 x TCID50) is given as <200 copies/mL; the “Plasma SHIV” value (300 mg/kg SC day 0, individual animals, study week 12, intrarectal SHIV dose 100 x TCID50) was <200 copies/mL; the “Plasma SHIV” value (300 mg/kg SC day 0, individual animals, study week 13, intrarectal SHIV dose 100 x TCID50) is recorded as <200 copies/mL. Besides, the “Plasma SHIV” value (300 mg/kg SC day 0, individual animals, study week 14, intrarectal SHIV dose 100 x TCID50) is <200 copies/mL; the “Plasma SHIV” value (300 mg/kg SC day 0, individual animals, study week 15, intrarectal SHIV dose 100 x TCID50) was <200 copies/mL; the “Plasma SHIV” value (300 mg/kg SC day 0, individual animals, study week 16, SHIV dose N/A) is reported as <200 copies/mL; the “Plasma SHIV” value (300 mg/kg SC day 0, individual animals, study week 17, SHIV dose N/A, listed as Compound lb) is 9063 copies/mL and 13193 copies/mL and <200 copies/mL (5×) and 13143 copies/mL; the “Plasma SHIV” value (300 mg/kg SC day 0, individual animals, study week 18, SHIV dose N/A, listed as Compound lb) is <200 copies/mL (6×) and 6116 copies/mL and 1633235 copies/mL; the “Plasma SHIV” value (300 mg/kg SC day 0, individual animals, study week 19, SHIV dose N/A, listed as Compound lb) is <200 copies/mL (3×) and 200 copies/mL (4×) and 123639 copies/mL.
